Experimental data published in PubChem BioAssay AID463173 (ICCB-Longwood Screening Facility, Harvard Medical School, 2010).
The campaign covered roughly 52,000 compounds. About 1,700 (3.3%) were called active. Rule as the data show it: active = survival mostly below about 52% (no sharp cut-off); inactive = mostly above about 56%. The list shows a part of the results.

System: Wild type
Test: growth inhibition of S. aureus wild type versus tarO mutant, primary screen, teichoic acid synthesis inhibitors, RN4220, OD600 (AID 463173)
Conditions: S. aureus RN4220 wild type/DeltatarO growth, OD600, 18 h, hits give low values, screened at 18.75 µg/mL (by protocol)

SMILES	survival
O=C(Cn1nc(-c2ccc(Cl)cc2)ccc1=O)NCc1ccccc1Cl	inactive: 65%
COc1cccc(N2CCN(C3C(=O)c4ccccc4N3C(C)=O)CC2)c1 (stereo unspecified)	inactive: 74%
COc1cccc(C2C(C(=O)Nc3ccc(C)cc3C)=C(C)Nc3c(C(=O)Nc4cccc(C)c4)cnn32)c1OC (stereo unspecified)	inactive: 78%
CCOc1ccc(OCC)c(NC(=O)CN(C)S(=O)(=O)c2ccc3c(c2)CCCC(=O)N3)c1	inactive: 57%
COc1ccc(N2CCN(C(=O)c3ccc(-c4nc(COc5ccccc5)c(C)o4)cc3)CC2)cc1	inactive: 82%
CCCNC(=O)C1CCC(Cn2c(=O)c3sccc3n(CC(=O)N3CCC(C)CC3)c2=O)CC1 (stereo unspecified)	inactive: 75%
Cc1cccc(OCC(=O)N(Cc2sccc2C)C2CCS(=O)(=O)C2)c1 (stereo unspecified)	inactive: 85%
Cc1cccc(C)c1NC(=O)CCC(=O)O	inactive: 99%
COc1ccc(N2CCN(C(=O)c3nc(SC)ncc3Cl)CC2)cc1	inactive: 93%
CC1=C(c2ccc(C)c(C)c2)S(=O)(=O)N=C1N1CCC(C(=O)NCc2ccc(C)o2)CC1	inactive: 82%
Cc1ccccc1OCCn1c(CCNC(=O)C(C)(C)C)nc2ccccc21	inactive: 75%
COc1ccc(C(C)C)cc1S(=O)(=O)NCCc1c(C)[nH]c2ccc(C)cc12	inactive: 139%
CC(C)(C)OC(=O)N1CCC(c2c(C(=O)N3CCc4ccccc4C3)cnn2-c2ccc(F)cc2)CC1	inactive: 76%
Cc1coc2c(C)c3oc(=O)c(CCC(=O)NCCc4ccc(Cl)cc4)c(C)c3cc12	inactive: 79%
CCc1ccc(CNC(=O)c2ccc(-c3nc(CS(=O)(=O)c4ccccc4)c(C)o3)cc2)cc1	inactive: 53%
COc1cc2c(cc1OC)C(C)N(C(=O)CN1CCOCC1)CC2 (stereo unspecified)	inactive: 97%
CCOc1cc(-n2cnnn2)c(OCC)cc1NC(=O)c1cc2cccc(OC)c2oc1=O	inactive: 104%
CC(NC(=O)CCCn1c(=O)c2cccn2c2cccnc21)c1ccccc1 (stereo unspecified)	inactive: 86%
COc1ccc(OC)c(CNC(=O)Cc2ccc(NC(=O)N3CCCCc4ccccc43)cc2)c1	inactive: 73%
COCCCNC(=O)c1c(NC(=O)Cc2coc3cc(C)cc(C)c23)sc2c1CCCC2	inactive: 86%
CCc1ccc(CNC(=O)CSc2cc(=O)n(C)c3ccc(Cl)cc23)cc1	inactive: 71%
CCN(CCCNC(=O)c1cc2c(=O)n(CC)c3ccccc3c2s1)c1ccccc1	inactive: 58%

SMILES	survival
O=C(c1ccc2c(c1)N(Cc1ccccc1F)C(=O)c1ccccc1S2(=O)=O)N1CCCC1	inactive: 97%
COc1ccc(-c2cc(-c3ccccc3)nc(SCC(=O)CC(=O)OC(C)C)c2C#N)cc1	inactive: 78%
CC(NC(=O)CCSCc1ccccc1F)c1ccccc1 (stereo unspecified)	inactive: 73%
COc1ccc(C(=O)N(Cc2cc(OC)c(OC)c(OC)c2)CC2CCCO2)cc1 (stereo unspecified)	inactive: 88%
Cc1cc(F)ccc1NCc1ccccc1-c1nnc(-c2ccccc2Cl)o1	inactive: 83%
O=C(NCC(c1cccnc1)N1CCc2ccccc21)c1cccc(C(F)(F)F)c1 (stereo unspecified)	inactive: 70%
CC(C)OC(=O)CN1C(=O)C(C)(C)Oc2ccc(C(=O)Nc3ccccc3)cc21	inactive: 97%
COC(=O)C1(C)NC(c2ccc(OC)cc2)C2C(=O)N(c3ccccc3)C(=O)C21 (stereo unspecified)	inactive: 105%
COc1ccc(CCCc2nnc(SCC(=O)Nc3ccc(C)cc3C)o2)cc1	inactive: 89%
CCN(CC)S(=O)(=O)c1cc(-c2onc(C)c2C)ccc1OC	inactive: 87%
Cc1ccc(-c2noc(-c3nnn(CC(=O)Nc4cc(C)cc(C)c4)c3N)n2)cc1	inactive: 111%
O=C(CSc1nccn1Cc1ccc(F)cc1)Nc1ccc2c(c1)OCCO2	inactive: 73%
CCCNC(=O)CSc1nc2nc(C)c(Cc3ccccc3Cl)c(C)n2n1	inactive: 69%
CCc1ccc(C(=O)c2cn(CC(=O)Nc3ccc(OC)cc3OC)c3ccc(CC)cc3c2=O)cc1	inactive: 80%
O=C1c2ccccc2C(=O)N1CCCn1nnc(-c2ccc(N3CCOCC3)cc2)n1	inactive: 122%
O=C(NCc1cccc(Cl)c1)C1CCN(C(=O)c2sccc2-n2cccc2)CC1	inactive: 79%
COc1cccc(C(=O)Nc2cccc(C(=O)OCc3cc(=O)n4nc(C(C)C)sc4n3)c2)c1	inactive: 70%
COc1ccc(C(C(C#N)C#N)C2C(=O)N(Cc3ccccc3)N=C2C)cc1 (stereo unspecified)	inactive: 98%
Cc1ccc(N(C)C(=O)c2cnc(N3CCOCC3)c3ccccc23)cc1C	inactive: 72%
CC(=O)N1CCC(N(C(=O)Nc2c(F)cccc2F)C(C)C)CC1	inactive: 81%
CSc1nc2sc3c(c2c(=O)n1-c1ccc(F)c(Cl)c1)CCN(C(C)=O)C3	inactive: 58%
Cc1cc(C)cc(NC(=O)CSc2nc(-c3cccc(Cl)c3)nc3c2Cc2c(CO)cnc(C)c2O3)c1	inactive: 132%

SMILES	survival
COc1ccc(CNC(=O)Cn2c(SCC(=O)Nc3ccc(C)c(C)c3)nc3ccccc32)cc1	inactive: 74%
CCOc1ccc(-c2nc(SCC(=O)NCCOC)c(-c3ccc(OC)c(OC)c3)[nH]2)cc1	inactive: 79%
CCc1ccc(-n2nc(C)c3c(C(=O)Nc4cc(OC)cc(OC)c4)cc(C)nc32)cc1	inactive: 66%
O=C(CSC1=Nc2ccccc2C2=NC(Cc3ccccc3)C(=O)N12)Nc1ccccc1F (stereo unspecified)	inactive: 127%
CCOC(=O)NC1(C(F)(F)F)NC(=O)N(c2ccc(C)c(C)c2)C1=O (stereo unspecified)	inactive: 94%
CCC(C(=O)NC1CCCC1)N(Cc1ccc2c(c1)OCO2)C(=O)c1snc(C(N)=O)c1N (stereo unspecified)	inactive: 121%
COc1ccc(S(=O)(=O)NCCc2csc(-c3ccc(F)cc3)n2)cc1	inactive: 89%
Cc1cc(C)cc(OCC(=O)Nc2ccc(S(=O)(=O)Nc3onc(C)c3C)cc2)c1	inactive: 73%
NNC(=O)c1nsnc1-c1ccccc1O	inactive: 99%
COc1ccc(-n2nc(C(=O)Nc3cccc(C(F)(F)F)c3)c3c4ccccc4n(C)c3c2=O)cc1	inactive: 79%
O=C(NCCN1CCOCC1)c1ccncc1	inactive: 120%
Cc1nc(CC(=O)Nc2ccc(N(C)C)cc2)cs1	inactive: 83%
Cc1nn(CC(=O)NCc2ccccc2Cl)c(=O)c2nn(-c3ccccc3)c(C)c12	inactive: 130%
Cc1ccccc1NC(=O)CSC1=Nc2ccccc2C2=NC(CCC(=O)NCc3ccccc3)C(=O)N12 (stereo unspecified)	inactive: 85%
COC(=O)CN1C(=O)CSc2ccc(S(=O)(=O)N3CCOCC3)cc21	inactive: 128%
COC(=O)c1sccc1S(=O)(=O)N(CC(=O)NCc1ccc(C)cc1)c1ccc(Cl)cc1	inactive: 76%
Cc1ccc(N2C(=O)C3C4C=CC(CNC(=O)OCc5ccccc5)(O4)C3C2=O)cc1 (stereo unspecified)	inactive: 100%
COc1ccc(C(=O)Nc2ccc3nc(SCC(=O)N4CCCc5ccccc54)sc3c2)cc1	inactive: 118%
CCN(CC)C(=O)c1sc2c(c1C)c(=O)n(-c1ccc(Cl)c(Cl)c1)c(=O)n2Cc1cc(=O)n2c(C)cccc2n1	active: 0%
COc1ccccc1CNC(=O)CN1C(=O)COc2ccc(S(=O)(=O)N3CCCCC3)cc21	inactive: 86%
O=S(=O)(NCc1cccc(Br)c1)c1ccc(-c2cc(C(F)(F)F)on2)s1	inactive: 53%
Cc1cc(C)cc(N2C(=O)N(CC(=O)c3ccc(Br)cc3)c3ccccc3S2(=O)=O)c1	inactive: 84%

SMILES	survival
Cc1ccc(-c2nc(C)c(CCNS(=O)(=O)c3ccccc3F)s2)cc1	inactive: 67%
CCCCn1cc(S(=O)(=O)c2ccc(OC)cc2)c(=O)c2cc(F)c(N3CCCC3)cc21	inactive: 82%
CCOc1ccc(NC(=O)Cn2cc(C(=O)c3ccc(C)c(C)c3)c(=O)c3cc4c(cc32)OCCO4)cc1	inactive: 80%
Cc1ccccc1-c1nnc(SCC(=O)Oc2c(C)cccc2C)o1	inactive: 102%
CN1C(=O)C(C)(C)c2cc(S(=O)(=O)NCc3ccc(C(=O)Nc4ccc(Cl)cc4)cc3)ccc21	inactive: 89%
Cc1cccc(NC(=O)N2CCC(CN3CCc4ccccc4C3)CC2)c1C	active: -4%
CCC(C)(C)n1nnnc1CN(Cc1ccccc1)Cc1cc2cc(OC)ccc2[nH]c1=O	inactive: 107%
O=C1C(=O)N(C2CCN(S(=O)(=O)c3ccc(F)cc3)CC2)CCN1Cc1ccccc1	inactive: 128%
CCN(C(=O)c1oc2ccc(S(=O)(=O)N3CCCCCC3)cc2c1C)c1ccccc1	inactive: 135%
CCOC(=O)c1cccc(NC(=O)CN2C(=O)CC(C)(C)Sc3ccccc32)c1	inactive: 79%
CCOC(=O)c1cc(S(=O)(=O)N2CCN(c3ccc(OC)cc3)CC2)[nH]n1	inactive: 121%
Cc1ccc(NC(=O)CSc2nncn2N)cc1C	inactive: 108%
Cc1cccc(C)c1OCc1nc2c3cnn(-c4cccc(F)c4)c3ncn2n1	inactive: 94%
COc1ccc(CCNC(=O)CCCn2c(=O)c3ccccc3n(Cc3ccccc3C)c2=O)cc1OC	inactive: 98%
Cc1ccc(-n2ncc(C(=O)NCCN3CCc4ccccc4C3)c2C2CCN(C(=O)OC(C)(C)C)CC2)cc1	inactive: 89%
Cc1ccc(Nc2c(-c3ccc(N4CCOCC4)cc3)nc3ncccn23)cc1	inactive: 131%
Cc1ccc(C(=O)Nc2c(C(=O)NCc3ccc(Cl)cc3)sc3nc(C)cc(C)c23)cc1	inactive: 82%
COCCN(Cc1cc2cc(C)c(C)cc2nc1Cl)C(C)=O	inactive: 102%
CCCCn1c2ccc(F)cc2c2nnc(SCCN(CC)CC)nc21	inactive: 136%
Cc1ccc(CNC(=O)c2c3c(nc4ccccc24)C(=O)N(C2CCCCC2)C3)cc1	inactive: 81%
